Reference: PubChem BioAssay (Tox21)
“And” between values parts separate entries of the source, which are not always exact repeats. Equal entries are not always repeated. Inconclusive results, whose numbers are uncertain, are shown with a selection of clear calls. For part of these data: Potencies of inconclusive entries are doubtful fits and often do not repeat. The source made the active and inactive calls. Unless noted, calls come from the whole dose curve; as a rule, active = well fitted curve in the direction sought with a large enough effect in the repeat runs; inconclusive = weak or mixed curves; inactive = no such curve, though single readings can be large; an effect the other way counts as inactive or inconclusive.

Columns and labels:
[1] = qHTS RealTime-Glo MT Cell Viability Assay in HEK293 cells - 8 hour (AID 1224887); note: nearly all actives have a fitted effect of over 50% in size; note: potency is the fitted concentration of half-maximal effect; for activity change, negative = cytotoxicity: top concentration of the series differs between compounds; % is set by controls: 0 for no effect and ±100 for the full control effect
Outline: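 Viable HEK293 cells reduce a cell-permeant prosubstrate; the product diffuses out and is consumed by NanoLuc in the medium to give light. Compounds went in after a 5 h incubation and plates were read over the treatment course.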

[2] = qHTS assay to identify small molecule agonists of the sonic hedgehog signaling (Shh) pathway - cell viability counter screen (AID 1259366); note: nearly all actives have a fitted effect of over 50% in size; note: potency is the fitted concentration of half-maximal effect
Outline: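 Compounds in DMSO were pin-transferred onto 3T3 Gli1-Luc cells that had settled 4hr; plates then stood 24hr at 37C and 5% CO2. One hour before the end, CellTiter-Fluor was added and fluorescence recorded.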

[3] = qHTS assay to identify small molecule antagonists of the sonic hedgehog signaling (Shh) pathway (AID 1259369; calls by dose curve; note: nearly all actives have a fitted effect of over 45% in size; note: potency is the fitted concentration of half-maximal effect)
Outline: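 For antagonist detection, the reporter line received test compounds together with conditioned medium, incubated 24hr at 37 C, 5% CO2, then luminescence was recorded following 30min room-temperature luciferase reagent incubation.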

[4] = A CellTox Green Cytotoxicity Assay to monitor cytotoxicity in HEK293 cells - 16 hour (AID 1224888); note: nearly all actives have a fitted effect of over 35% in size; note: potency is the fitted concentration of half-maximal effect; for activity change: % is set by controls: 0 for no effect and ±100 for the full control effect
Outline: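 Fluorescence intensity, read at 0, 8, 16, 24, 32 and 40 h of compound treatment, reflected dye binding to DNA of dead HEK293 cells; compounds (23 nL, DMSO) were added 5 h after plating cells with reagent.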

[5] = biological target: Estrogen receptor beta (Homo sapiens) (UniProt Q92731); experiment: qHTS assay to identify small molecule agonists of the estrogen receptor beta (ER-beta) signaling pathway (AID 1259377; active = well fitted activation curve with a large enough effect in the signal ratio in the repeat runs, not every such curve was filed as active; inconclusive = weak or mixed curves, or effect the other way; the % refers to the signal ratio; note: potency is the fitted concentration of half-maximal effect; for activation: % is set by controls: 0 for no effect and ±100 for the full control effect); conditions: ER-beta-UAS-bla HEK293T, beta-lactamase FRET ratio, 16 h
Chain of UniProt Q92731 (Q92731 whole entry, looked up): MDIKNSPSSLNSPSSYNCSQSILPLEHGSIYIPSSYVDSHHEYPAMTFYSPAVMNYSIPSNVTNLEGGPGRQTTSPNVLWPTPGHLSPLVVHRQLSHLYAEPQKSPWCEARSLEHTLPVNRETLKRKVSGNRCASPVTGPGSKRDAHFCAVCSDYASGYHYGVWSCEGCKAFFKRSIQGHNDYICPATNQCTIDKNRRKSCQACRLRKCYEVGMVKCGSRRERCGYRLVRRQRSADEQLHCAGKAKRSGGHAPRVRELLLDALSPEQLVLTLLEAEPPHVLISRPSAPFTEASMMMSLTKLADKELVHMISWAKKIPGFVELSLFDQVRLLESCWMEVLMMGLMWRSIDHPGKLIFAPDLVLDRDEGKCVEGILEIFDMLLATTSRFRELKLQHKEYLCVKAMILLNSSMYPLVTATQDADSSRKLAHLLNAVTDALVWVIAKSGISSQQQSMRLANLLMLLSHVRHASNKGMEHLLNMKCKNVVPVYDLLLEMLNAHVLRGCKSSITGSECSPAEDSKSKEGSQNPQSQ
Outline: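 qHTS in ER-beta-UAS-bla HEK293T cells: 6 hr settling, then 16 hr compound at 37C, then LiveBLAzer substrate 2 h at RT before fluorescence reading.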

[6] = biological target: Estrogen receptor (Homo sapiens) (UniProt P03372); experiment: qHTS assay to identify small molecule antagonists of the estrogen receptor alpha (ER-alpha) signaling pathway using the BG1 cell line in the presence of 0.1 nM 17-beta-estradiol (AID 1259244); note: potency is the fitted concentration of half-maximal effect; nearly all actives have a fitted effect of over 50% in size
Chain of UniProt P03372 (P03372 whole entry, looked up): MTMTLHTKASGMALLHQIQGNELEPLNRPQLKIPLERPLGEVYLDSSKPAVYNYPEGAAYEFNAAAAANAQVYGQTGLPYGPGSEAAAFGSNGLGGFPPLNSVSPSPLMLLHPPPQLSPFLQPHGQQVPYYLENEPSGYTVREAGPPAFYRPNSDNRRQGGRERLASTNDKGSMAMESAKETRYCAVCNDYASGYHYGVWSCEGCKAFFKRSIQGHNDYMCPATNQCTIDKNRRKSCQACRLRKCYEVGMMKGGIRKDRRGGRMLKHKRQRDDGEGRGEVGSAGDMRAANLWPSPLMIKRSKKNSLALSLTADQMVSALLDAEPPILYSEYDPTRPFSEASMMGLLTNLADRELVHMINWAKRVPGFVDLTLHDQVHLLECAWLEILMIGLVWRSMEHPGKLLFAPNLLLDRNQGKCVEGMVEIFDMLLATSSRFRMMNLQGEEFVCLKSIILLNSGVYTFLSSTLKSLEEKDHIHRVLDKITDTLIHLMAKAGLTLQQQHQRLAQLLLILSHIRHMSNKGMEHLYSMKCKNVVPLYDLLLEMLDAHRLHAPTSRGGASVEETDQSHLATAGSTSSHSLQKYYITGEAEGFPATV
Outline: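 Estradiol at 0.1 nM (final) stimulates the endogenous ER-alpha of VM7Luc4E2 cells carrying an ERE-driven luciferase; compounds are co-incubated 22 h at 37C and luciferase output quantified by luminescence.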

[7] = biological target: Androgen receptor (Homo sapiens) (UniProt P10275); experiment: qHTS assay to identify small molecule antagonists of the androgen receptor (AR) signaling pathway using the MDA cell line in the presence of 0.5 nM R1881 (AID 1259243); note: nearly all actives have a fitted effect of over 50% in size; note: potency is the fitted concentration of half-maximal effect
Chain of UniProt P10275 (P10275 whole entry, looked up): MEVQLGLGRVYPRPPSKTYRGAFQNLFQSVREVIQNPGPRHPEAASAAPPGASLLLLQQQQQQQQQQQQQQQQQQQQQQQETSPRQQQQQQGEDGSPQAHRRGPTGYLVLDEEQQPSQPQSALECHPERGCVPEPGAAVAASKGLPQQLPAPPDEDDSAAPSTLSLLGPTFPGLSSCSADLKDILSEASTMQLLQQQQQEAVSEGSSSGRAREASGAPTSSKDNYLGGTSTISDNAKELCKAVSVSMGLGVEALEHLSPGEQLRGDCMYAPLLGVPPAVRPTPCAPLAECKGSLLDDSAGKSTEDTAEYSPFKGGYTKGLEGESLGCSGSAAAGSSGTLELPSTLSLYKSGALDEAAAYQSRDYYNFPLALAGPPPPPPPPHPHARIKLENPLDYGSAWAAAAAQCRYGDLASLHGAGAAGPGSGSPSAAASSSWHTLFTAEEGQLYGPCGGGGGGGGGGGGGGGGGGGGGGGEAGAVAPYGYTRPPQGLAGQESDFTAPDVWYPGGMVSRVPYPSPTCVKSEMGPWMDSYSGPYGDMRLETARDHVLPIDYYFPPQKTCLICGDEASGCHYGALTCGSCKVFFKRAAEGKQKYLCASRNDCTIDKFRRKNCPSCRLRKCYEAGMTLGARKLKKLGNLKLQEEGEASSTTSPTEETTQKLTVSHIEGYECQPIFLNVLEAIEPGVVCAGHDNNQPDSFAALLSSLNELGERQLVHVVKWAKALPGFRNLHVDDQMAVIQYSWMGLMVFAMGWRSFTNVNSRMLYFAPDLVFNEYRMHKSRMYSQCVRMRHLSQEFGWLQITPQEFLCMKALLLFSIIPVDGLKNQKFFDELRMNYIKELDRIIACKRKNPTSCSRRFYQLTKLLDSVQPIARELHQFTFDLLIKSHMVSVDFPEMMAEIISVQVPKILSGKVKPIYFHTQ
Outline: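 Reporter cells cultured without CO2 receive test chemicals, then 0.5 nM R1881 final; after 16 hr at 37C, ONE-Glo is added and light output recorded.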

[8] = qHTS assay to identify small molecule phospholipidosis (PLD) inducers (AID 1259344; active = well fitted curve in the direction sought with a large enough effect; inconclusive = small, poorly fitted or top-dose-only effect, or another doubt; inactive = no such curve, though single readings can be large; an effect the other way counts as inactive or inconclusive; note: % is set by controls: 0 for no effect and ±100 for the full control effect)
Outline: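 HepG2 cells grown on collagen I take up LipidTOX Red while exposed to compound for 24 h; after fixation they are imaged at 20x and pit metrics are extracted.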

[9] = qHTS assay to identify small molecule antagonists of the estrogen receptor alpha (ER-alpha) signaling pathway using the BG1 cell line in the presence of 0.1 nM 17-beta-estradiol - cell viability counter screen (AID 1259241); note: potency is the fitted concentration of half-maximal effect; nearly all actives have a fitted effect of over 40% in size
Outline: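 Following 5 days in phenol red-free medium with charcoal-stripped serum, VM7Luc4E2 cells received test compounds alongside 0.1 nM 17beta-estradiol (final) at 37C for 22 hr. Live cells were then quantified via protease-substrate fluorescence.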

[10] = qHTS assay to identify small molecule antagonists of the androgen receptor (AR) signaling pathway using the MDA cell line in the presence of 0.5 nM R1881 - cell viability counter screen (AID 1259242); note: potency is the fitted concentration of half-maximal effect; nearly all actives have a fitted effect of over 45% in size
Outline: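 Viability of MDA-kb2 cells was multiplexed with the luciferase AR readout; after 16 hr with compounds and R1881 at 0.5 nM final, CellTiter-Fluor fluorescence was recorded.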

[11] = A CellTox Green Cytotoxicity Assay to monitor cytotoxicity in HepG2 cells - 8 hour (AID 1224890); note: % is set by controls: 0 for no effect and ±100 for the full control effect; nearly all actives have a fitted effect of over 45% in size
Outline: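 Using 1536-well format, dye-containing HepG2 suspension was seeded, allowed 5 h at 37 C/5% CO2, dosed by pintool with compounds, positive and negative controls, and imaged for fluorescence across 40 h.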

[12] = qHTS RealTime-Glo MT Cell Viability Assay in HepG2 cells - 0 hour (AID 1224889)
Outline: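 HepG2 suspension premixed with RealTime-Glo reagents is plated at 600 cells per well and left 5 h at 37 C/5% CO2. Compounds in DMSO then go in, and bioluminescence reflecting viable cell number is recorded over 40 h.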

[13] = qHTS assay to identify small molecule antagonists of the sonic hedgehog signaling (Shh) pathway - cell viability counter screen (AID 1259367); note: potency is the fitted concentration of half-maximal effect; nearly all actives have a fitted effect of over 55% in size
Outline: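 After a 4 hr settling period, 3T3 Gli1-Luc cells were treated with DMSO-dissolved chemicals and conditioned medium, kept 24 hr at 37C in 5% CO2, and assayed for viability by CellTiter-Fluor fluorescence following 1 hr reagent incubation.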

[14] = activation: at 92.4 µM (top of the series) unless noted
Tags give direction and shape of the fitted curve or compound fluorescence and quenching.

Oc1ccc(Cc2ccccc2O)cc1
Potency [1]: inconclusive: 19.7 µM [cytotoxic, partial curve] and inconclusive: 19.5 µM [cytotoxic, partial curve] | Potency [2]: inconclusive: 55.1 µM [cytotoxic, partial curve, poor fit] | Potency [3]: inconclusive: 15.5 µM [inhibitor, full curve] and active: 43.3 µM

CNCc1ccccc1
Potency [4]: inactive

COCCOC
Potency [1]: inconclusive: 1.05 µM [cytotoxic, full curve] | Potency [5, 14]: inactive

C=CCCCCCCCCCCCCCCCC
activity change [4]: inactive: -0.39% [at 6.97 µM, stronger effect = higher value]

Nc1ccc(F)cc1
Potency [4]: inconclusive: 22.9 µM [activator, single point]

C[C@@H]1NC(=O)[C@@H](N)CNC(=O)[C@H](C2CCNC(N)=N2)NC(=O)/C(=C/NC(N)=O)NC(=O)[C@H](CNC(=O)C[C@@H](N)CCCN)NC1=O (stereo partly specified)
activity change, negative = cytotoxicity [1]: inactive: 0.186% [at 0.29 µM] | activation [5, 14]: inactive: 1.61% [at 0.348 µM]

Cc1cc(C)c(O)c(C(C)(C)C)c1
Potency [4]: inconclusive: 27.5 µM [activator, partial curve]

CCCCCCCC(=O)Oc1c(Br)cc(C#N)cc1Br
Potency [1]: inconclusive: 43.5 µM [cytotoxic, partial curve] | Potency [6]: inconclusive: 68.3 µM [inhibitor, single point] | Potency [5, 14]: inconclusive: 3.84 µM [rising, full curve]

COc1cc(N)c(Cl)cc1C(=O)NC1CCN(Cc2ccccc2)CC1
Potency [1]: active: 21.3 µM | Potency [3]: inconclusive: 21.1 µM [inhibitor, partial curve, poor fit] | Potency [5, 14]: inactive

O=C1CCCN1CCO
Potency [1]: inconclusive: 54.9 µM [cytotoxic, single point] | Potency [5, 14]: inconclusive: 48.6 µM [rising, partial curve, poor fit]

Cc1cccc(S(=O)(=O)O)c1C
Potency [1]: inactive | Potency [3]: inconclusive: 6.11 µM [inhibitor, single point] | Potency [5, 14]: inactive

CCCCCCCC(=O)OCCCCCC
Potency [1]: inconclusive: 11 µM [cytotoxic, partial curve] | Potency [5, 14]: inactive

COCc1c(C(C)C)nc(C(C)C)c(/C=C/[C@@H](O)C[C@@H](O)CC(=O)O)c1-c1ccc(F)cc1
Potency [4]: inactive | Potency [7]: inactive | Potency [8]: inactive | Potency [3]: inconclusive: 4.22 µM [inhibitor, full curve] and inconclusive: 958 nM [inhibitor, full curve] | Potency [5, 14]: inconclusive: 13.3 µM [rising, partial curve] and inconclusive: 12.1 µM [rising, partial curve]

Nc1ccc2cc(S(=O)(=O)O)cc(O)c2c1N=Nc1ccccc1C(F)(F)F
Potency [4]: inactive | Potency [9]: active: 30.6 µM | Potency [10]: inconclusive: 48.6 µM [cytotoxic, partial curve, poor fit] | Potency [2]: inconclusive: 30.6 µM [cytotoxic, partial curve]

NC(=O)Nc1nc2ccccc2[nH]1
Potency [4]: inconclusive: 61.2 µM [activator, single point] | Potency [11]: inactive | Potency [5, 14]: inactive

CCC(COC(=O)CCS)(COC(=O)CCS)COC(=O)CCS
Potency [4]: inactive | Potency [9]: inconclusive: 19.3 µM [cytotoxic, partial curve]

CC1CCc2nccnc21 (stereo unspecified)
Potency [12]: inconclusive: 21.9 µM [rising, partial curve]

CC/C=C\C/C=C\C/C=C\CCCCCCCC(=O)OC
Potency [12]: inconclusive: 24.5 µM [cytotoxic, partial curve] | Potency [7]: inconclusive: 68.6 µM [inhibitor, single point] | Potency [2]: inconclusive: 68.6 µM [cytotoxic] | Potency [13]: inconclusive: 68.6 µM [cytotoxic, partial curve, poor fit] | Potency [3]: active: 43.3 µM | Potency [5, 14]: inconclusive: 68.6 µM [rising, partial curve]

O=C(O)C1CCC1
Potency [4]: inactive | Potency [2]: inactive

CCCC(O)C(CC)CO (stereo unspecified)
Potency [4]: inconclusive: 3.89 µM [activator, partial curve] | activation ([5]; at 42.5 µM (top of the series)): inconclusive: 7.86% | activation ([5]; at 92.4 µM (top of the series)): inconclusive: 7.05%

Nc1ccc(NC(=O)c2ccc(N)cc2)cc1
Potency [4]: inactive | Potency [5, 14]: inconclusive: 15.4 µM [rising, full curve]

CCCCCCCCCCCCCC(=O)OCC(O)CO (stereo unspecified)
Potency [4]: inconclusive: 19.5 µM [activator, partial curve, poor fit] | Potency [5, 14]: inactive

O=C(CCc1ccc(O)cc1)c1c(O)cc(O)cc1O
Potency [12]: inconclusive: 56.2 µM [cytotoxic, partial curve] | Potency [7]: inconclusive: 78.7 µM [inhibitor, single point] | Potency [3]: inconclusive: 70.1 µM [inhibitor, single point] | Potency [5, 14]: active: 7.01 µM

CCCCCCCC/C=C\CCCCCCCC(=O)OCCO
Potency [12]: inconclusive: 36.5 µM [cytotoxic, partial curve, poor fit]

NC(=O)c1ccccc1[N+](=O)[O-]
Potency [4]: inconclusive: 1.78 µM [activator, partial curve] | activation [5, 14]: inconclusive: 9.61%

O=C1c2ccccc2C(=O)c2c1ccc(O)c2O
Potency [4]: inactive | Potency [10]: inconclusive: 23.7 µM [cytotoxic, partial curve, poor fit] | Potency [2]: inconclusive: 26.6 µM [cytotoxic, partial curve, poor fit] | Potency [3]: inactive | Potency [5, 14]: active: 7.5 µM
